The text below walks through data of paper PMC4336329 (PLoS ONE, 2015).

SMILES strings stand for the structures. In all, about 310,000 compounds went through this assay and about 14,000 (4.5%) showed an effect of 50% or more. Effects have a minus sign here. Some of the results follow.
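Further: peak tail current of the secondary pulse compared with the same well before compound.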

This assay deals with human ether-à-go-go-related gene (hERG) potassium channel (human, UniProt Q12809). Nature of the assay: primary screen, population patch clamp on CHO cells stably expressing hERG.
Sequence of human ether-à-go-go-related gene (hERG) potassium channel (Q12809 whole entry, looked up): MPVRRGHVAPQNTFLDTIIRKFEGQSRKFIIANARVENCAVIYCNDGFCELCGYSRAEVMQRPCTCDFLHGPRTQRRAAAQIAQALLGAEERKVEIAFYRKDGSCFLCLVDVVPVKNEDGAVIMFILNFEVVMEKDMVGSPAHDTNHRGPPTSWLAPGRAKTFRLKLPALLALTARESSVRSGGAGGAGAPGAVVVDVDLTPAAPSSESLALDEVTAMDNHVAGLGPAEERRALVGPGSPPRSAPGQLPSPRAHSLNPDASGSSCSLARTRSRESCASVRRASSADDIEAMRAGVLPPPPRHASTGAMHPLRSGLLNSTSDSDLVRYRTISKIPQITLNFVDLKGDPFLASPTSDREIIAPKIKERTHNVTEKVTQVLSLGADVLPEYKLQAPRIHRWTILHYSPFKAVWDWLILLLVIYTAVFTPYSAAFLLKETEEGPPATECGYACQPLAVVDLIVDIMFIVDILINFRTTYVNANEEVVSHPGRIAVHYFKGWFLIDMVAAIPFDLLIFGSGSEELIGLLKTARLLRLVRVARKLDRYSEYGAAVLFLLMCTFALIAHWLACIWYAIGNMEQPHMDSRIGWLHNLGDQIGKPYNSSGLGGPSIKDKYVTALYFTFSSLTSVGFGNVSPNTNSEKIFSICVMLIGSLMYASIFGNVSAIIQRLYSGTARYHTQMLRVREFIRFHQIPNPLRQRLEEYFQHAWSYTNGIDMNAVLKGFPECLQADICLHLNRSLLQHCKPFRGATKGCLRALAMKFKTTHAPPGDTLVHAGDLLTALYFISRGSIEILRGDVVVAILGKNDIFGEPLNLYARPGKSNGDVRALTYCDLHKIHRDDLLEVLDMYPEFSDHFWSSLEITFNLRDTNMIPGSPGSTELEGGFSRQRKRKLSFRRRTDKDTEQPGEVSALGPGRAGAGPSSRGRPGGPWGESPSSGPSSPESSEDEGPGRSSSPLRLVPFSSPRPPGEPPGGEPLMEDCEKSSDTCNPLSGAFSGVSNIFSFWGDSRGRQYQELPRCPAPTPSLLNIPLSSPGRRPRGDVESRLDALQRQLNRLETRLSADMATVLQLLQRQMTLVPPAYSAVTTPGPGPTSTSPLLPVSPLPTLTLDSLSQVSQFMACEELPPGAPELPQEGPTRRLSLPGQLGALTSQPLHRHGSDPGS
For `C#CCOCCOCCOCCNc1nc(N2CCN(C(=O)CCCCCCCCCCNC(=O)[C@H](CO)n3cc(CCCSC)nn3)CC2)nc(N2CCN(C(=O)CCCCCCCCCCNC(=O)[C@H](CCCCN)n3cc(C[C@@H](C)CC)nn3)CC2)n1`, the “hERG current change (%, negative = inhibition) at 10uM” value was -0.212%. As for `O=S(=O)(c1ccc(F)cc1)N1CCCC1`, the figure is 10.9%. For `CCC(Sc1nc(C)cc(=O)[nH]1)C(=O)Nc1ccc(Cl)cn1` (stereo not shown) the value was 0.299%; for `CN(C(=O)c1cc2c(=O)n3ccccc3nc2s1)C1CCCCC1`, -11.5%; for `O=C(Nc1ccccc1C(=O)N1CCOCC1)c1ccc(CSc2ccccc2)cc1`, -19.9%. Take `Oc1ccc(C[C@@H]2CNCCN2CCCCC2CCCCC2)cc1`: the “hERG current change (%, negative = inhibition) at 10uM” value was -18%. For `O=C(CN1C(=O)S/C(=C\c2ccc(Cl)cc2)C1=O)NNC(=O)c1ccccc1O` the value was -3.16%; for `CC1(C)CC(=O)C=C(Nc2ccc(F)cc2)C1`, -2.75%. As to `Cc1ccc(NC(=O)C2(S(=O)(=O)c3ccc(Cl)cc3)CC2)cc1`, the “hERG current change (%, negative = inhibition) at 10uM” value is recorded as -22%. In the case of `COC(=O)Cc1cc(=O)n2[nH]c(C)cc2n1`, the “hERG current change (%, negative = inhibition) at 10uM” value stood at 9.84%. For `CCc1nnc(NC(=O)Cn2c(=O)oc3ccccc32)s1` the value was 3%; for `C=CCn1c(SC2CCOC2=O)nc2sc(C)c(C)c2c1=O` (stereo not shown), -11.2%; for `C=CCNC(=S)N/N=C/c1ccc(-c2ccc(OC)cc2)o1`, 37%.

With `COc1ccccc1NC(=O)CN1CCC(c2nc3ccccc3[nH]2)CC1`, the “hERG current change (%, negative = inhibition) at 10uM” value is recorded as -43.6%. As for `COc1ccc(/C=C2\N=C(SC)NC2=O)cc1`, the figure is 14%. As for `Cn1cc(C(=O)N2CCc3ccccc3C2)c(=O)c2cc(S(=O)(=O)N3CCOCC3)ccc21`, the figure is 8%. With `COC(=O)[C@@H]1Cc2c([nH]c3ccccc23)C(C)(C)N1C(=O)CCl`, the “hERG current change (%, negative = inhibition) at 10uM” value came out at 3.24%. With `C=C(C)CNC(=S)N1CCN(C(c2ccccc2)c2ccccc2)CC1`, the “hERG current change (%, negative = inhibition) at 10uM” value is recorded as 4.87%.

Take `c1coc(-c2ccnc(-c3ccncc3)n2)c1`: the “hERG current change (%, negative = inhibition) at 10uM” value is listed as 8.51%. Consider `COc1ccc(NC(=O)C(c2ccccc2)N(C)C(=O)c2cnccn2)cc1` (stereo not shown), for which the “hERG current change (%, negative = inhibition) at 10uM” value was 1.47%. As for `COc1cccc(CN(C)Cc2nc(C3CC3)no2)c1`, the “hERG current change (%, negative = inhibition) at 10uM” value is recorded as 28.6%. As for `Cc1c(S(=O)(=O)NCc2ccccc2)c(=O)n(C)c(=O)n1C`, the figure is 18.8%; as for `NC(=O)C1CCN(C(=O)/C(=C/c2ccccc2)NC(=O)c2ccccc2)CC1`, 15.1%; as for `COc1ccc(/C=C2\CCCCC2=O)cc1`, -6.19%. Consider `COC(=O)C1CCN(c2cc(=O)n(-c3ccccc3Cl)c(=O)[nH]2)CC1`, for which the “hERG current change (%, negative = inhibition) at 10uM” value was determined as 3.53%. For `O=c1[nH]c2ccccc2c(O)c1SCCO` the value was -39.9%. For `CCCCC(=O)Nc1ccc(C(=O)N2CCN(c3ccccc3OC)CC2)cc1` the value was -3.8%; for `Cc1cccc(C)c1NC(=O)C1CSC2(C)CCC(=O)N12` (stereo not shown), 15.1%. For `CCCCCCCCC/C(=N\O)c1ccccn1` the value was 11.6%; for `CCNc1nc(NC(C)C)nc(OCC)n1`, -13.3%. For `O=C(NC(=C(Cl)Cl)S(=O)(=O)c1ccc(Cl)cc1)c1ccccc1`, the “hERG current change (%, negative = inhibition) at 10uM” value was found to be 3.23%. As for `CCOC1=NC(C(=O)O)c2ccccc2/C(=C(/C)Cl)N1` (stereo not shown), the figure is 6.78%; as for `CC1(CCc2ccc3c(c2)OCO3)NC(=O)c2ccccc2N1` (stereo not shown), -7.78%; as for `C=CCSC(CC)(CC)C(N)=O`, 3.1%. Consider `CCc1cc2c(SCC#N)ncnc2s1`, for which the “hERG current change (%, negative = inhibition) at 10uM” value was -6.66%. For `Cl.O=C(CN1CCN(Cc2ccccc2)CC1)Nc1ccc2c(c1)CCC2` the value was -47.6%; for `Cn1c(-c2ccc(Br)cc2)cnc1NCc1ccc(C#N)cc1.O=C(O)C(=O)O`, -76.6%. For the compound `Cc1ccnc(NC(=O)CCCOc2ccc(Cl)cc2C)c1`, the “hERG current change (%, negative = inhibition) at 10uM” value is 21.3%. For `Cc1cc(NC(=O)c2cccc(C(=O)Nc3cc(C)on3)n2)no1` the value was 4.26%. For `O=C(Nc1ccc2ccccc2c1)c1cccc([N+](=O)[O-])c1` the value was 13.8%; for `CCC(=O)NS(=O)(=O)c1ccc(N=NN2CCCCC2)cc1`, 17.1%. Take `Cc1cc(-c2ccccc2C(=O)O)on1`: the “hERG current change (%, negative = inhibition) at 10uM” value came to 17.6%. For `O=C(Cn1c(C(F)(F)F)nc2ccccc21)c1ccc(F)cc1` the value was 13.9%; for `O=C(O)CSc1nnc(COc2cccc3ccccc23)n1Cc1ccccc1`, 21.3%; for `CC(=O)c1ccc(N2CCN(C(=O)C(=O)c3cn(CC(=O)N4CCCCCC4)c4ccccc34)CC2)cc1`, 3.18%.

As to `CC(C)COC(=O)Nc1nnc(SCc2ccccc2F)s1`, the “hERG current change (%, negative = inhibition) at 10uM” value came out at 3.47%. For `COc1ccc(S(=O)(=O)Nc2ccc(S(=O)(=O)N3CCCC3)cc2)cc1` the value was -27.9%. For `COc1ccc(NC(=O)/C(C#N)=C\c2ccc(-c3cc(C(=O)O)ccc3C)o2)cc1` the value was 23.7%; for `Br.c1ccc(NC2=NCCCS2)cc1`, 4.95%.

For `O=C(Nc1ccc(Cl)cc1)[C@@H]1[C@@H]2C(=O)N(c3ccc(Cl)cc3Cl)C(=O)[C@@H]2[C@H]2C=CC=NN21`, the “hERG current change (%, negative = inhibition) at 10uM” value is recorded as -22.5%. For `O=C(O)c1cccc(S(=O)(=O)N(Cc2ccccc2)c2cccc(C(F)(F)F)c2)c1` the value was 26.8%. With `CC(=O)Nc1sc(N/N=C\c2ccc(O)cc2)nc1-c1cccs1`, the “hERG current change (%, negative = inhibition) at 10uM” value is on record as 9.3%. As for `Cc1ccccc1NC(=O)/C=C/c1cccc(C(F)(F)F)c1`, the figure is -2.88%. As for `O=C(Nc1cccc2ccccc12)N1CCN(c2ccc(F)cc2)CC1`, the figure is 16.1%; as for `COc1ccc(C(=O)CN2C(=O)NC3(CCCCCC3)C2=O)cc1`, -6.35%. As for `Brc1ccc(-c2nnc3c4ccccc4nc(N4CCOCC4)n23)cc1`, the “hERG current change (%, negative = inhibition) at 10uM” value is -8.42%. As for `Cc1ccc(C)c(NC(=S)NC(NC(=O)Cc2ccccc2)C(Cl)(Cl)Cl)c1` (stereo not shown), the figure is 15.7%. For `Cc1ccc(-n2nnnc2SCC(=O)c2cc(C)n(-c3cc(C)on3)c2C)c(C)c1` the value was -9.42%.
